The text below walks through data of EP2500357A2 (Abbott Laboratories, dated 2012).

Test in all cases: cell-based or functional assay
The target of test [1] is T1, human IL-12 (human, UniProt P29459 23-219; P29460 23-328).
T1 sequence (looked up) 1: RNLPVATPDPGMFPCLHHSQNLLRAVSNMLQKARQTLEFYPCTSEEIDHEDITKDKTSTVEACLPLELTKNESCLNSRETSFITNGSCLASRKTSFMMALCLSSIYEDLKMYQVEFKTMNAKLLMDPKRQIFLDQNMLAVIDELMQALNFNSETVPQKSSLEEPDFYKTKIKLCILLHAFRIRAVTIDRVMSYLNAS
T1 sequence (looked up) 2: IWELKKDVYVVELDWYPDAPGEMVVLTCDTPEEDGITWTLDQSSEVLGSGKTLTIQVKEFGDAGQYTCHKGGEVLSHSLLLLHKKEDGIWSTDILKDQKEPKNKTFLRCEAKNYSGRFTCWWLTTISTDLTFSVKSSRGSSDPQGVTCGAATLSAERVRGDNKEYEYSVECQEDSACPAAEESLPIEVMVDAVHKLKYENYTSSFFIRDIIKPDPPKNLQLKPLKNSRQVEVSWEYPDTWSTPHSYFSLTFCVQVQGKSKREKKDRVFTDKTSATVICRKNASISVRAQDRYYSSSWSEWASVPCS

Test [2] deals with T2, human IL-18 (human, UniProt Q14116 37-193).
For test [3], the target named is T1, human IL-12. The source holds these as a separate data set.
Test [4] concerns the target T2, human IL-18. The source holds these as a separate data set.

B1: 1D4.1-ABT325 DVD-Ig (bispecific antibody, human IgG1, kappa)
heavy: EVTLRESGPALVKPTQTLTLTCTFSGFSLSKSVMGVSWIRQPPGKALEWLAHIYWDDDKYYNPSLKSRLTISKDTSKNQVVLTMTNMDPVDTATYYCARRGIRSAMDYWGQGTTVTVSSASTKGPEVQLVQSGTEVKKPGESLKISCKGSGYTVTSYWIGWVRQMPGKGLEWMGFIYPGDSETRYSPTFQGQVTISADKSFNTAFLQWSSLKASDTAMYYCARVGSGWYPYTFDIWGQGTMVTVSS[human IgG1 constant region left out]
light: DIVMTQSPDSLAVSLGERATINCKASQSVSNDVAWYQQKPGQPPKLLIYYASNRYTGVPDRFSGSGSGTDFTLTISSLQAEDVAVYYCQQDYNSPWTFGGGTKVEIKRTVAAPEIVMTQSPATLSVSPGERATLSCRASESISSNLAWYQQKPGQAPRLFIYTASTRATDIPARFSGSGSGTEFTLTISSLQSEDFAVYYCQQYNNWPSITFGQGTRLEIKRTVAAPSVFIFPPSDEQLKSGTASVVCLLNNFYPREAKVQWKVDNALQSGNSQESVTEQDSKDSTYSLSSTLTLSKADYEKHKVYACEVTHQGLSSPVTKSFNRGEC
Regarding B1, the “Potency (IC50), PBMC assay (IL-12)” value in the test with human IL-12 [1] was 0.217 nM. Besides, the “Potency (IC50), KG-1 bioassay (IL-18)” value with human IL-18 [2] stood at 0.12 nM.

B2: DVD1218SL (anti-IL12/IL18 DVD-Ig) (bispecific antibody, human IgG1, kappa)
heavy: QVQLVESGGGVVQPGRSLRLSCAASGFTFSSYGMHWVRQAPGKGLEWVAFIRYDGSNKYYADSVKGRFTISRDNSKNTLYLQMNSLRAEDTAVYYCKTHGSHDNWGQGTMVTVSSASTKGPEVQLVQSGTEVKKPGESLKISCKGSGYTVTSYWIGWVRQMPGKGLEWMGFIYPGDSETRYSPTFQGQVTISADKSFNTAFLQWSSLKASDTAMYYCARVGSGWYPYTFDIWGQGTMVTVSS[human IgG1 constant region left out]
light: QSVLTQPPSVSGAPGQRVTISCSGSRSNIGSNTVKWYQQLPGTAPKLLIYYNDQRPSGVPDRFSGSKSGTSASLAITGLQAEDEADYYCQSYDRYTHPALLFGTGTKVTVLGQPKAAPEIVMTQSPATLSVSPGERATLSCRASESISSNLAWYQQKPGQAPRLFIYTASTRATDIPARFSGSGSGTEFTLTISSLQSEDFAVYYCQQYNNWPSITFGQGTRLEIKRTVAAPSVFIFPPSDEQLKSGTASVVCLLNNFYPREAKVQWKVDNALQSGNSQESVTEQDSKDSTYSLSSTLTLSKADYEKHKVYACEVTHQGLSSPVTKSFNRGEC
Consider B2, for which the “Potency (IC50), IL-12-induced IFN-γ production by PHA blast cells” value in the test with human IL-12 [3] turned out to be 0.00693 nM. For the same molecule, in the test with human IL-18 [4], the “Potency (IC50), KG-1 bioassay (IFN-γ production)” value is 0.18 nM.

B3: DVD1218LL (anti-IL12/IL18 DVD-Ig) (bispecific antibody, human IgG1, kappa, lambda)
heavy: QVQLVESGGGVVQPGRSLRLSCAASGFTFSSYGMHWVRQAPGKGLEWVAFIRYDGSNKYYADSVKGRFTISRDNSKNTLYLQMNSLRAEDTAVYYCKTHGSHDNWGQGTMVTVSSASTKGPSVFPLAPEVQLVQSGTEVKKPGESLKISCKGSGYTVTSYWIGWVRQMPGKGLEWMGFIYPGDSETRYSPTFQGQVTISADKSFNTAFLQWSSLKASDTAMYYCARVGSGWYPYTFDIWGQGTMVTVSS[human IgG1 constant region left out]
light: QSVLTQPPSVSGAPGQRVTISCSGSRSNIGSNTVKWYQQLPGTAPKLLIYYNDQRPSGVPDRFSGSKSGTSASLAITGLQAEDEADYYCQSYDRYTHPALLFGTGTKVTVLGQPKAAPSVTLFPPEIVMTQSPATLSVSPGERATLSCRASESISSNLAWYQQKPGQAPRLFIYTASTRATDIPARFSGSGSGTEFTLTISSLQSEDFAVYYCQQYNNWPSITFGQGTRLEIKRTVAAPSVFIFPPSDEQLKSGTASVVCLLNNFYPREAKVQWKVDNALQSGNSQESVTEQDSKDSTYSLSSTLTLSKADYEKHKVYACEVTHQGLSSPVTKSFNRGEC
For B3, the “Potency (IC50), IL-12-induced IFN-γ production by PHA blast cells” value with human IL-12 [3] was 0.00304 nM. In addition, the “Potency (IC50), KG-1 bioassay (IFN-γ production)” value in the test with human IL-18 [4] is 0.18 nM.
